# Data: the supplement of paper PMC3334620
# The full ranking holds about 33,000 sequences; the median of “E-score (-0.5 to 0.5)” is about -0.053, and the highest 2% start at about 0.37. Some of the results follow.
# Target: Hap1 (UniProt P0CE41)
# Test: PBM E-score (8-mer binding enrichment) (E-score (-0.5 to 0.5)); higher = stronger / more preferred TF binding; most listed sequences are background and not binding sites
# Settings: protein concentration: 200 nM; construct: GST-DNA-binding domain
# Outline: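 Yeast transcription factors carrying a GST tag, as full-length proteins or DNA-binding domains, were produced by PURExpress in vitro transcription/translation. About 100-200 nM protein was applied to universal all-10-mer Agilent arrays, double-stranded by primer extension on fresh or once-stripped slides. Bound protein was detected with fluorescent anti-GST, and scans were normalised with masliner. The Universal PBM Analysis Suite gave each ungapped eight-base word, pooled with its reverse complement, an E-score, a modified Wilcoxon-Mann-Whitney statistic.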
# Chain of UniProt P0CE41 (P0CE41 whole entry): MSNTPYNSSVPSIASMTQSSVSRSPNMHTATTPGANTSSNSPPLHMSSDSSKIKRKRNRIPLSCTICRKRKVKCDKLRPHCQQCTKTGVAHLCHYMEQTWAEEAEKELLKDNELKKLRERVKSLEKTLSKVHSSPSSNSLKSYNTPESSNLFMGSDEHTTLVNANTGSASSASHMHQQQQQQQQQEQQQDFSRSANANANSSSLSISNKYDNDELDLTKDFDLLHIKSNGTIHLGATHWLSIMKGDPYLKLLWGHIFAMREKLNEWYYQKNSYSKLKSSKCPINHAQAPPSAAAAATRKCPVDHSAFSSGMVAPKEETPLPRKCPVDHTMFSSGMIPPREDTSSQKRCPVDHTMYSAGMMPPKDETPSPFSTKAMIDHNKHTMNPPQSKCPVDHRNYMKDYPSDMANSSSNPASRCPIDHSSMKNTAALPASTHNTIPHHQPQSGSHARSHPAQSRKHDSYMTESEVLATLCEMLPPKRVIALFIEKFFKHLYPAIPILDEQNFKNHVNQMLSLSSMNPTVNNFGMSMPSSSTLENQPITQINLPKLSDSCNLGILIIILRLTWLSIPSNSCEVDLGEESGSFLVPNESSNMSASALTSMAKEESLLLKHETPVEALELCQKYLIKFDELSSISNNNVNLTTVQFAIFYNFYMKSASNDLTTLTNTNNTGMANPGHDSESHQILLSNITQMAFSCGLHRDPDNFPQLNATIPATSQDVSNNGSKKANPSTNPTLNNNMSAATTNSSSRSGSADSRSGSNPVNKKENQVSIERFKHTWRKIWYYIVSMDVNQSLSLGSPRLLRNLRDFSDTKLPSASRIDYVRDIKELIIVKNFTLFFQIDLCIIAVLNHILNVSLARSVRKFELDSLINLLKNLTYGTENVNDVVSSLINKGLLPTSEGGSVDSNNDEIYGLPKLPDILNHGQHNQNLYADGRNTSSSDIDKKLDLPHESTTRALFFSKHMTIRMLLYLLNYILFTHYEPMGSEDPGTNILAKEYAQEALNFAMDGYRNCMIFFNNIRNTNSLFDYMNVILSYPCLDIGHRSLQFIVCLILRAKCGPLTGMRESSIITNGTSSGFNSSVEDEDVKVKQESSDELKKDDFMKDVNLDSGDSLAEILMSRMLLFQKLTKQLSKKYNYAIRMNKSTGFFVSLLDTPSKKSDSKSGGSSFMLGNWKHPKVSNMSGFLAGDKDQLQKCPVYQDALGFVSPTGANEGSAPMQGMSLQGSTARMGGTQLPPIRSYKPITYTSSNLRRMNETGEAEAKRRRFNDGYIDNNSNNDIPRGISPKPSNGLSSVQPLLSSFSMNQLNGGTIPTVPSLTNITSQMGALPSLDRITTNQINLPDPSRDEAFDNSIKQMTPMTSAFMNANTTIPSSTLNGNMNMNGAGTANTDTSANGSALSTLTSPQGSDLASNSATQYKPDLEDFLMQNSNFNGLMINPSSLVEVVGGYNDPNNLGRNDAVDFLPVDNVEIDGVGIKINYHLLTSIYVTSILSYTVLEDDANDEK
row,Sequence,PBM E-score
1,CTTAGAGA,-0.183
2,TACCAGGA,0.191
3,AACCTCAG,-0.0137
4,AAGCAAGG,-0.0634
5,ATGTAGCA,0.0146
6,TAAAGTCA,-0.1
7,CAAAAGAC,-0.272
8,TTAGTGAA,-0.0313
9,ACTATATG,-0.236
10,AGAATCGG,0.282
11,CAAGGCCC,-0.0324
12,GAGGATGC,-0.0739
13,GATGCCCA,-0.113
14,GCATATAA,0.0302
15,CTCGCTCA,-0.028
16,CTGCCTTA,-0.208
17,ATCGGATA,0.404
18,CACATTGC,-0.126
19,CACCCTAC,-0.27
20,CTGGCGCC,0.0833
21,CGTGATCC,-0.0273
22,CTGAGCTC,0.00147
23,CGGGGAGA,0.11
24,CCCTAAAG,-0.0534
25,ATACGTGG,-0.184

row,Sequence,PBM E-score
1,GGTTTGAC,0.153
2,CGTAGAAG,-0.0489
3,TAAATCCA,0.071
4,CTTCATTC,-0.153
5,ACTACGAC,-0.078
6,ATATCTGG,0.12
7,CTCCGCAG,0.216
8,AATAAATC,0.102
9,CCTAATCC,0.00876
10,AAAAGGCG,-0.102
11,GATAAGGC,-0.00984
12,GAGTTGAA,0.0428
13,GTCCCCTA,-0.196
14,CTTCCCGC,0.0523
15,CATACGAA,-0.161
16,AGTGAACT,-0.0204
17,AGGGCCCA,-0.06
18,ACCCATCA,-0.195
19,AACTGGCT,-0.279
20,CGAAGGCC,0.191
21,AGAGCGGG,0.0695
22,CAGAGCAC,-0.0773
23,GGGGGCAC,-0.178
24,GATCTGGC,0.104
25,ATCGGTGG,0.215

row,Sequence,PBM E-score
1,ATCCGATG,0.277
2,ACTAAAGG,-0.181
3,ATTCACAA,0.0356
4,CCCCTTCC,-0.099
5,CGCACGCG,0.0664
6,GAATGGGC,0.0082
7,AGGTAGCA,-0.183
8,AGCAATAT,-0.105
9,AGAGTCAA,-0.174
10,GGTAATAA,0.294
11,CTAATTAC,0.0415
12,ACATGCTA,-0.182
13,CGAAGCCG,0.238
14,CATGGGAA,-0.0406
15,ATGTACGG,0.0736
16,CTTGTGGA,-0.273
17,CGCGTTTA,0.253
18,AAGGAGAC,-0.294
19,ACCATAGG,-0.281
20,CGAAGTCG,0.0997
21,GAGTTAGA,0.0347
22,AATAAAAA,-0.00889
23,GATGGTAA,-0.192
24,CGACGTCG,0.0423
25,GACAGAGA,-0.183

row,Sequence,PBM E-score
1,GATTATCA,0.0127
2,AGTTGGCG,0.0317
3,GGCTTGGA,-0.221
4,CCGATGCG,0.316
5,CGGTACGA,0.207
6,ACCCATTA,0.0564
7,GCGTATCC,-0.0679
8,CAAGTGTG,-0.128
9,AAGGGGCT,-0.166
10,CCCACGCG,0.101
11,CGAACACG,0.09
12,GTGCTTGA,-0.247
13,GGCGGACA,0.264
14,ACTCCCCG,0.283
15,AATTGCCG,0.257
16,GCCAGTTA,-0.14
17,AGTCGTAT,-0.123
18,CGACCCTA,0.00653
19,CTTAAATA,-0.104
20,GGTGACCA,-0.222
21,GGAGACCA,0.156
22,CTGCGTGC,-0.0143
23,CCCTGCTC,-0.203
24,CTCTAGGC,-0.173
25,CCGGACGG,0.444

row,Sequence,PBM E-score
1,CACTGATC,-0.255
2,CGCCCTTA,0.0404
3,CCTGAAAC,0.0482
4,CTTTACCC,-0.0945
5,CGGCATGA,0.24
6,AGGGTGAA,-0.0664
7,CATATTCA,-0.116
8,ATACTGTA,-0.0332
9,CATTTGCC,-0.0698
10,GACGTCTA,-0.144
11,ACAACCGG,0.243
12,TTCTGAAA,-0.118
13,CGAGTACC,0.108
14,AGGCGCAC,-0.0853
15,CACTTCAA,-0.016
16,AATGATAC,-0.12
17,AGAAGGGA,-0.327
18,GGAGGTTA,0.168
19,ACGGCCGC,0.228
20,GGAAGGGA,-0.00824
21,AAACAACT,-0.0616
22,CGGTCAGC,0.109
23,AAATTAGC,0.0409
24,CACCTCCC,-0.124
25,GTATATCA,-0.0364

row,Sequence,PBM E-score
1,GCCGAGCA,0.236
2,AAAGAGGA,-0.226
3,AACACTAA,-0.103
4,AACAACTG,-0.179
5,GGAAATGA,0.145
6,GATAAGGA,-0.0112
7,AATCACGT,-0.0116
8,CGCTAGCA,-0.128
9,GCACGAAC,-0.146
10,GGAATCAC,0.196
11,CCATCTAA,-0.139
12,AGAGCACG,-0.153
13,AGGCCGAG,0.303
14,TGGCTGAA,-0.171
15,ATGTCGGG,0.226
16,CAGATCGA,-0.145
17,ATGTCTAC,-0.222
18,AAAAAACT,-0.122
19,GATACATC,0.153
20,ATGTTGGA,0.0713
21,GCTTTCCA,-0.11
22,GGTTTTCA,0.0885
23,AAGATGCC,-0.13
24,CTCCAAAG,-0.0981
25,AGGGGAAC,-0.168

row,Sequence,PBM E-score
1,ACTTTAGC,0.00284
2,CCTACTCG,0.0324
3,CATAAACC,0.0764
4,AGGTATGG,-0.0822
5,CGCGTTAC,0.1
6,GACCTAGA,0.0321
7,CATAACGG,0.179
8,GTTAAAAC,0.137
9,TTCTAAAA,0.0164
10,TACTCTGA,-0.13
11,ATAATGCC,0.304
12,CATTTCCC,0.162
13,CGTCCTAA,-0.165
14,GCGTGCAC,-0.0196
15,ACGGGTCT,0.00119
16,AGGATTTC,0.0343
17,AAGTAGCA,-0.251
18,CCTGTCAG,-0.132
19,ACTGCGCC,-0.181
20,ATGGAACC,0.0821
21,ACCTTGTG,-0.181
22,ATAACAAA,0.0217
